Assay results published in PubChem BioAssay (Tox21).
Values joined by “and” are separate entries in the source; they are usually repeats but may differ in a detail not shown here. Equal entries are not always repeated. This list was built around the results that the source calls inconclusive (neither active nor inactive); the mix of calls is not that of the screen. For some of these results: Potencies of inconclusive entries are doubtful fits and often do not repeat. Active and inactive are the calls of the source. Unless noted, calls come from the whole dose curve; as a rule, active = well fitted curve in the direction sought with a large enough effect in the repeat runs; inconclusive = weak or mixed curves; inactive = no such curve, though single readings can be large; an effect the other way counts as inactive or inconclusive.

Assays:
[1] = qHTS assay to identify small molecule antagonists of the estrogen related receptor (ERR) signaling pathway from Tox21 library - cell viability counter screen (AID 1224834); note: nearly all actives have a fitted effect of over 30% in size; note: potency is the fitted concentration of half-maximal effect
Method in brief: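 Compounds in DMSO were pinned onto ERR cells that had been incubated for 6 h, and the plates were held at 37 C for 17.5 h. CellTiter-Fluor reagent was then added and fluorescence was measured after 30 min.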

[2] = biological target: Nuclear receptor subfamily 1 group I member 3 (Homo sapiens) (UniProt Q14994); assay: qHTS assay to identify small molecule antagonists of the constitutive androstane receptor (CAR) signaling pathway (AID 1224838);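 note: HepG2 cells stably expressing hCAR with CYP2B6 luciferase reporter stimulated by CITCO; nearly all actives have a fitted effect of over 40% in size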; note: potency is the fitted concentration of half-maximal effect
Method in brief: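 Luminescence from a CYP2B6-2.2kb promoter reporter in hCAR-expressing HepG2 cells reflects CAR signaling. Cells received compounds at 15 concentrations and 50 nM CITCO (final), then incubated 24 h at 37 C/5% CO2.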

[3] = biological target: Nuclear receptor subfamily 1 group I member 3 (Homo sapiens) (UniProt Q14994); assay: qHTS assay to identify small molecule agonists of the constitutive androstane receptor (CAR) signaling pathway (AID 1224839); note: nearly all actives have a fitted effect of over 15% in size; note: potency is the fitted concentration of half-maximal effect
Method in brief: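 HepG2 cells stably co-transfected with hCAR and a CYP2B6-2.2kb luciferase reporter; compounds at 15 concentrations with 0.75 uM PK11195 present. After 24 hr at 37 C, luciferase read by ONE-Glo luminescence.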

[4] = biological target: Thyrotropin receptor (Homo sapiens) (UniProt P16473); assay: qHTS assay to identify small molecule agonists of the thyroid stimulating hormone receptor (TSHR) signaling pathway (AID 1224843; calls by dose curve; note: nearly all actives have a fitted effect of over 45% in size; note: potency is the fitted concentration of half-maximal effect); conditions: TSHR-HEK293 cells, cAMP HTRF, agonist mode, 30 min; series mostly up to 92.4 µM
Method in brief: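 Compounds are titrated over 15 concentrations, in triplicate, onto TSHR-HEK293 cells seeded at 800/well. Plates sit 30 min at room temperature before cAMP-d2 and anti-cAMP cryptate are added; signal is read after a further hour.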

[5] = qHTS assay to identify small molecule agonists of the hypoxia (HIF-1) signaling pathway - cell viability counter screen (AID 1224844; calls by dose curve; note: potency is the fitted concentration of half-maximal effect; nearly all actives have a fitted effect of over 50% in size)
Method in brief: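 Viability counter screen: HRE-bla ME-180 cells plated 5 hrs before compound addition, treated 17 hrs at 37C and 5% CO2, then CellTiter-Glo added after the FRET reporter read; luminescence after 30 min.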

[6] = qHTS assay to identify small molecule agonists of the constitutive androstane receptor (CAR) signaling pathway - cell viability counter screen (AID 1224836); note: potency is the fitted concentration of half-maximal effect; nearly all actives have a fitted effect of over 45% in size
Method in brief: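 HepG2 cells stably carrying hCAR and a CYP2B6-2.2kb reporter; 15-concentration compounds plus PK11195 (final 0.75 uM), 23 hr at 37 C/5% CO2. Viability read by CellTiter-Fluor fluorescence.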

[7] = qHTS assay to identify small molecule antagonists of the constitutive androstane receptor (CAR) signaling pathway - cell viability counter screen (AID 1224837); note: potency is the fitted concentration of half-maximal effect; nearly all actives have a fitted effect of over 45% in size
Method in brief: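 Cells are seeded, rested 4 hr at 37 C/5% CO2, dosed with compound (15-point series) and 50 nM CITCO, incubated a further 23 hr, and then CellTiter-Fluor reagent is added before fluorescence is read. The line is HepG2 with stable hCAR and CYP2B6-2.2kb.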

[8] = biological target: Luciferin 4-monooxygenase (Photinus pyralis) (UniProt P08659); assay: qHTS assay to identify small molecule inhibitors of firefly luciferase (AID 1224835); note: nearly all actives have a fitted effect of over 25% in size
Method in brief: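 Quantitative HTS format; KM concentrations of both substrates. Purified P. pyralis FLuc activity quantified from luminescence images.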

[9] = qHTS assay to identify small molecule antagonists of the estrogen related receptor signaling pathway with the pleiotropic PPARgamma coactivator (PGC) from Tox21 10K library (AID 1224841; call rule not given here; note: potency is the fitted concentration of half-maximal effect; actives are mostly falling curves and most rising ones were filed inactive; nearly all actives have a fitted effect of over 50% in size)
Method in brief: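 Cells stably carrying the PGC/ERR reporter, seeded at 2,000 per well, received pin-transferred compounds 6 h post-plating. Exposure lasted 18 h at 37 C. Signal: One-Glo luminescence.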
Tags give direction and shape of the fitted curve or compound fluorescence and quenching.

UniProt Q14994, sequence (Q14994 whole entry, looked up): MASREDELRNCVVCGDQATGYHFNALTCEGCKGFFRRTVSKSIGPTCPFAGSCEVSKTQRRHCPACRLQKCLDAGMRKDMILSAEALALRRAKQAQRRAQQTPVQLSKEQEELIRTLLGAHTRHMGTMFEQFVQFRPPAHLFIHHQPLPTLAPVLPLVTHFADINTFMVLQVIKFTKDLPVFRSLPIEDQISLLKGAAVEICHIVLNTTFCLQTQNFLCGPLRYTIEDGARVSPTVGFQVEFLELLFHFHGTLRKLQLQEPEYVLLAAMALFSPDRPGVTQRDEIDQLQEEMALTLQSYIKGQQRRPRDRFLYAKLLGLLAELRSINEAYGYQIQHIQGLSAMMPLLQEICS
UniProt P08659, sequence (P08659 whole entry, looked up): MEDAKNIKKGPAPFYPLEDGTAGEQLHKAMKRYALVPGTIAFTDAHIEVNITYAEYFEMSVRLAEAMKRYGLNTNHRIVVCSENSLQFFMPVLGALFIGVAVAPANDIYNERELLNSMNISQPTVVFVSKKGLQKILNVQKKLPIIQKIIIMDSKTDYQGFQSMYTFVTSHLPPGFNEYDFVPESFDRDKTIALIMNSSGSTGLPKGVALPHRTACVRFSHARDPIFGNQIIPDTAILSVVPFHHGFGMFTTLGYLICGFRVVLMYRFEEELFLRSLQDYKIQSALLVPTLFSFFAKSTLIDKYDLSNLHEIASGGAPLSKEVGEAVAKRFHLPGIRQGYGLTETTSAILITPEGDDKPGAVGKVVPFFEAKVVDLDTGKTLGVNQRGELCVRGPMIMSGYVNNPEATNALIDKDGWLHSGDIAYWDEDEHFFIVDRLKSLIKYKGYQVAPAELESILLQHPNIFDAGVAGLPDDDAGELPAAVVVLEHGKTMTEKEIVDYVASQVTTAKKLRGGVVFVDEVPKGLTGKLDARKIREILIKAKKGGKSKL
UniProt P16473, sequence (P16473 whole entry, looked up): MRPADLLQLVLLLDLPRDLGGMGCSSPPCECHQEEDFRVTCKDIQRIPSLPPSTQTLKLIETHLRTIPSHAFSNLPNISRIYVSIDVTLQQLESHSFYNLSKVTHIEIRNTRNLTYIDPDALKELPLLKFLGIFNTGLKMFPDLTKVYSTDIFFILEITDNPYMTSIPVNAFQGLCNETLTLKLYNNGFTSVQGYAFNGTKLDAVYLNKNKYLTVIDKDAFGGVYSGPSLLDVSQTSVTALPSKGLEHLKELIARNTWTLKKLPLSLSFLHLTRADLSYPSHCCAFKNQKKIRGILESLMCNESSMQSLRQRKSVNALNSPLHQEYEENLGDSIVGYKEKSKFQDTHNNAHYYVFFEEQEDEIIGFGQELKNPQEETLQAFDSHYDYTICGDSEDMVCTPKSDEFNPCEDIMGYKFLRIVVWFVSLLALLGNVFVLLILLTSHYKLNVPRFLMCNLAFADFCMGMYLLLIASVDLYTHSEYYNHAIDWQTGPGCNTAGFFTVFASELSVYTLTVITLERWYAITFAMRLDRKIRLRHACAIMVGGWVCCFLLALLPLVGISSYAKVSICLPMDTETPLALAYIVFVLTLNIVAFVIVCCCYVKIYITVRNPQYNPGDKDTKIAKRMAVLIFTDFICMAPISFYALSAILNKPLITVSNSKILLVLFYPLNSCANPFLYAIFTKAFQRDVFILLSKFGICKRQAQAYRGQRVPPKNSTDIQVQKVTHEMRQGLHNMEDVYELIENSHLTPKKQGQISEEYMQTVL

## CC(C)(C)c1cc(C(C)(C)C)c(O)c(C(C)(C)C)c1
[1]
  Potency: inconclusive: 77 µM [cytotoxic, single point]
[2]
  Potency: inconclusive: 17.2 µM [inhibitor] and inconclusive: 30.6 µM [inhibitor, full curve]
[3]
  Potency: active: 12.2 µM
[4]
  Potency: inconclusive: 77 µM [activator, single point]
[5]
  Potency: inconclusive: 30.9 µM [cytotoxic, partial curve] and inconclusive: 61.6 µM [cytotoxic, single point]

## Cc1ccc(Nc2c(F)cccc2Cl)c(CC(=O)O)c1
[1]
  Potency: inactive

## C=C[C@H]1CN2CC[C@H]1C[C@@H]2[C@@H](O)c1ccnc2ccc(OC)cc12
[1]
  Potency: inconclusive: 47.8 µM [cytotoxic, partial curve]
[6]
  Potency: inconclusive: 53.6 µM [cytotoxic, partial curve, poor fit]
[7]
  Potency: inconclusive: 53.6 µM [cytotoxic, partial curve, poor fit]
[2]
  Potency: inactive

## CC(=O)[C@H]1CC[C@H]2[C@@H]3CC=C4C[C@@H](O)CC[C@]4(C)[C@H]3CC[C@]12C
[8]
  Potency: inactive

## O=C(O)c1cccnc1C(=O)O
[8]
  Potency: inactive

## CCCCCCCCCC=O
[8]
  Potency: inactive

## CCCCCCCCS(=O)C(C)Cc1ccc2c(c1)OCO2 (configuration not stated)
[1]
  Potency: inconclusive: 69.9 µM [cytotoxic, single point]
[3]
  Potency: inconclusive: 69.9 µM [activator, single point]
[4]
  Potency: inactive

## O=C=Nc1cccc(C(F)(F)F)c1
[1]
  Potency: inconclusive: 68.1 µM [cytotoxic, partial curve, poor fit]
[9]
  Potency: inconclusive: 68.1 µM
[5]
  Potency: inconclusive: 19.4 µM [cytotoxic, partial curve, poor fit]

## O=C(O)Cn1c(=O)n(Cc2ccc(Br)cc2F)c(=O)c2ccc(Cl)cc21
[1]
  Potency: inconclusive: 68.6 µM [cytotoxic, single point]
[3]
  Potency: inactive
[9]
  Potency: inconclusive: 23.7 µM [falling, partial curve]
